Patent US20210163595A1 (CELGENE, published 2021)

B1: PD1AB-6-K3 (antibody, human IgG1, kappa)
heavy: EVQLVQSGAEVKKPGATVKISCKASGFNIKDTYMHWVQQAPGKGLEWMGRIDPANGDRKYDPKFQGRVTITADTSTDTAYMELSSLRSEDTAVYYCARSGPVYYYGSSYVMDYWGQGTTVTVSS[human IgG1 constant region with changes omitted here]
light: DIVMTQSPDSLAVSLGERATINCKSGQSVLYSSNQKNFLAWYQQKPGQPPKLLIYWASTRESGVPDRFSGSGSGTDFTLTISSLQAEDVAVYYCHQYLYSWTFGQGTKLEIKRTVAAPSVFIFPPSDEQLKSGTASVVCLLNNFYPREAKVQWKVDNALQSGNSQESVTEQDSKDSTYSLSSTLTLSKADYEKHKVYACEVTHQGLSSPVTKSFNRGEC
B2: PD1AB-6-IgG1 (antibody)
heavy: EVQLVQSGAEVKKPGATVKISCKASGFNIKDTYMHWVQQAPGKGLEWMGRIDPANGDRKYDPKFQGRVTITADTSTDTAYMELSSLRSEDTAVYYCARSGPVYYYGSSYVMDYWGQGTTVTVSS[human IgG1 constant region omitted here]
light: DIVMTQSPDSLAVSLGERATINCKSGQSVLYSSNQKNFLAWYQQKPGQPPKLLIYWASTRESGVPDRFSGSGSGTDFTLTISSLQAEDVAVYYCHQYLYSWTFGQGTKLEIKRTVAAPSVFIFPPSDEQLKSGTASVVCLLNNFYPREAKVQWKVDNALQSGNSQESVTEQDSKDSTYSLSSTLTLSKADYEKHKVYACEVTHQGLSSPVTKSFNRGEC
notes: also called IgG1_PD1AB-6; IgG1-PD1AB-6
B3: PD1AB-6-4P (antibody, human IgG4 S228P, kappa)
heavy: EVQLVQSGAEVKKPGATVKISCKASGFNIKDTYMHWVQQAPGKGLEWMGRIDPANGDRKYDPKFQGRVTITADTSTDTAYMELSSLRSEDTAVYYCARSGPVYYYGSSYVMDYWGQGTTVTVSSASTKGPSVFPLAPCSRSTSESTAALGCLVKDYFPEPVTVSWNSGALTSGVHTFPAVLQSSGLYSLSSVVTVPSSSLGTKTYTCNVDHKPSNTKVDKRV[human IgG4 Fc with S228P L445P (EU numbers) omitted here]
light: DIVMTQSPDSLAVSLGERATINCKSGQSVLYSSNQKNFLAWYQQKPGQPPKLLIYWASTRESGVPDRFSGSGSGTDFTLTISSLQAEDVAVYYCHQYLYSWTFGQGTKLEIKRTVAAPSVFIFPPSDEQLKSGTASVVCLLNNFYPREAKVQWKVDNALQSGNSQESVTEQDSKDSTYSLSSTLTLSKADYEKHKVYACEVTHQGLSSPVTKSFNRGEC
notes: also called IgG4P-PD1AB-6

Experiments:
[1] = molecular target: T1, cyno PD-1 expressed on cells (cynomolgus monkey, UniProt B0LAJ3 25-288); test: cell-based or functional assay
[2] = molecular target: T2, human PD-1 expressed on the cell surface (human, UniProt Q15116 partial chain); test: flow cytometry on CHO cells expressing human PD-1; unlabeled antibody, detection with anti-human IgG Fc (PE GeoMFI); x axis 'Primary Ab conc (nM)' with ticks -3 to 3, read as log10 of nM
T2 construct: also called human PD-1-CHO cells; CHO-hPD-1

[3] = molecular target: T1, cyno PD-1 expressed on cells; test: flow cytometry on CHO cells expressing cyno PD-1; unlabeled antibody, detection with anti-human IgG Fc (PE GeoMFI); x axis 'Primary Ab conc (nM)' with ticks -3 to 3, read as log10 of nM
T1 sequence (B0LAJ3 entry or part of it limits assumed): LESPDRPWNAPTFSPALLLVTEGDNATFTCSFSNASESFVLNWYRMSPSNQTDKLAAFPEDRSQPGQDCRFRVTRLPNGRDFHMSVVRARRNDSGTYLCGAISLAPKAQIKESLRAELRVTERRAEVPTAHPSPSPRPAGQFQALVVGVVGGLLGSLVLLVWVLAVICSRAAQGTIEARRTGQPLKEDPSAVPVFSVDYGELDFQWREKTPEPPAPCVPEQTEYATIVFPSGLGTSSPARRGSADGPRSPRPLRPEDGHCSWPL

[4] = molecular target: T2, human PD-1 expressed on the cell surface; test: flow cytometry on CHO cells expressing human PD-1; unlabeled antibody, detection with anti-human IgG Fc (PE GeoMFI); no unit in the table; x axis 'Primary Ab conc (nM)' with ticks -3 to 3, read as log10 of nM
T2 sequence (Q15116 25-198 limits assumed): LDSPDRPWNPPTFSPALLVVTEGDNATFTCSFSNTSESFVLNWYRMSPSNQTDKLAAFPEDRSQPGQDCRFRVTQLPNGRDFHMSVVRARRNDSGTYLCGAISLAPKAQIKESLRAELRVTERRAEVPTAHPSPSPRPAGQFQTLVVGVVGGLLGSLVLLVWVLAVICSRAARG

[5] = molecular target: T1, cyno PD-1 expressed on cells; test: flow cytometry on CHO cells expressing cyno PD-1; unlabeled antibody, detection with anti-human IgG Fc (PE GeoMFI); no unit in the table; x axis 'Primary Ab conc (nM)' with ticks -3 to 3, read as log10 of nM

Binder	IL-2 EC50 (nM), cyno PBMC assay, NHP1 [1] [nM]	IL-2 EC50 (nM), cyno PBMC assay, NHP2 [1] [nM]	IL-2 EC50 (nM), cyno PBMC assay, NHP3 [1] [nM]	IL-2 EC50 (nM), cyno PBMC assay, NHP4 [1] [nM]	EC50 (read off the curve) [2] [nM]	EC50 (read off the curve) [3] [nM]	LogEC50 [4]	LogEC50 [5]
B1	0.24	2.5	9.24	1.22				
B2	0.28	4.9			~3	~6	0.431	0.806
B3	< 0.1	1.24	16.5	1.23				
